Test results from the supplement of paper PMC8728848.
This is one part of the list.

Key:
Experiment in all cases: glycan array binding signal (z-score within array); higher = stronger binding
Settings in all cases: glycan notation: IUPAC condensed, linker removed
[1] = biological target: Neu5Ac(a2-3)Gal(b1-4)Glc
How it was run: (§1)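 The binding signal is a Z-score computed within each array. Data were drawn from 3228 arrays in the Consortium for Functional Glycomics database, restricted to those with a known protein sequence. Scores were averaged over arrays of the same protein sequence at different concentrations or buffers, and over linkers, and negative values can be taken as non-binding.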

[2] = biological target: Neu5Ac(a2-3)Gal(b1-4)GlcNAc
How it was run: as §1

[3] = biological target: Neu5Ac(a2-3)Gal(b1-4)GlcNAc(b1-2)Man(a1-3)[GlcNAc(b1-2)Man(b1-4)GlcNAc(b1-2)Man(a1-6)]Man(b1-4)GlcNAc(b1-4)GlcNAc
How it was run: as §1

[4] = biological target: Neu5Ac(a2-3)Gal(b1-4)GlcNAc(b1-2)Man(a1-3)[Neu5Ac(a2-3)Gal(b1-4)GlcNAc(b1-2)Man(a1-6)]Man(b1-4)GlcNAc(b1-4)GlcNAc
How it was run: as §1

[5] = biological target: Neu5Ac(a2-3)Gal(b1-4)GlcNAc(b1-2)Man(a1-3)[Neu5Ac(a2-6)Gal(b1-4)GlcNAc(b1-2)Man(a1-6)]Man(b1-4)GlcNAc(b1-4)GlcNAc
How it was run: as §1

[6] = biological target: Neu5Ac(a2-3)Gal(b1-4)GlcNAc(b1-3)Gal
How it was run: as §1

[7] = biological target: Neu5Ac(a2-3)Gal(b1-4)GlcNAc(b1-3)Gal(b1-3)GlcNAc
How it was run: as §1

[8] = biological target: Neu5Ac(a2-3)Gal(b1-4)GlcNAc(b1-3)Gal(b1-4)GlcNAc
How it was run: as §1

[9] = biological target: Neu5Ac(a2-3)Gal(b1-4)GlcNAc(b1-3)Gal(b1-4)GlcNAc(b1-3)Gal(b1-4)GlcNAc
How it was run: as §1

[10] = biological target: Neu5Ac(a2-3)Gal(b1-4)GlcNAc(b1-3)Gal(b1-4)[Fuc(a1-3)]GlcNAc
How it was run: as §1

[11] = biological target: Neu5Ac(a2-3)Gal(b1-4)GlcNAc(b1-3)GalNAc
How it was run: as §1

[12] = biological target: Neu5Ac(a2-3)Gal(b1-4)GlcNAc(b1-6)[Gal(b1-3)]GalNAc
How it was run: as §1

[13] = biological target: Neu5Ac(a2-3)Gal(b1-4)GlcNAc(b1-6)[Neu5Ac(a2-3)Gal(b1-3)]GalNAc
How it was run: as §1

[14] = biological target: Neu5Ac(a2-3)Gal(b1-4)GlcNAc6S
How it was run: as §1

[15] = biological target: Neu5Ac(a2-3)Gal(b1-4)[Fuc(a1-3)]GlcNAc
How it was run: as §1

[16] = biological target: Neu5Ac(a2-3)Gal(b1-4)[Fuc(a1-3)]GlcNAc(b1-3)Gal
How it was run: as §1

[17] = biological target: Neu5Ac(a2-3)Gal(b1-4)[Fuc(a1-3)]GlcNAc(b1-3)Gal(b1-4)GlcNAc
How it was run: as §1

[18] = biological target: Neu5Ac(a2-3)Gal(b1-4)[Fuc(a1-3)]GlcNAc(b1-3)Gal(b1-4)[Fuc(a1-3)]GlcNAc(b1-3)Gal(b1-4)[Fuc(a1-3)]GlcNAc
How it was run: as §1

[19] = biological target: Neu5Ac(a2-3)Gal(b1-4)[Fuc(a1-3)]GlcNAc(b1-3)GalNAc
How it was run: as §1

[20] = biological target: Neu5Ac(a2-3)Gal(b1-4)[Fuc(a1-3)]GlcNAc(b1-6)[Gal(b1-3)]GalNAc
How it was run: as §1

[21] = biological target: Neu5Ac(a2-3)Gal(b1-4)[Fuc(a1-3)]GlcNAc6S
How it was run: as §1

[22] = biological target: Neu5Ac(a2-3)Gal6S(b1-4)GlcNAc
How it was run: as §1

[23] = biological target: Neu5Ac(a2-3)Gal6S(b1-4)[Fuc(a1-3)]GlcNAc
How it was run: as §1

[24] = biological target: Neu5Ac(a2-3)GalNAc
How it was run: as §1

[25] = biological target: Neu5Ac(a2-3)GalNAc(b1-4)GlcNAc
How it was run: as §1

[26] = biological target: Neu5Ac(a2-3)[GalNAc(b1-4)]Gal(b1-4)Glc
How it was run: as §1

[27] = biological target: Neu5Ac(a2-3)[GalNAc(b1-4)]Gal(b1-4)GlcNAc
How it was run: as §1

[28] = biological target: Neu5Ac(a2-3)[GalNAc(b1-4)]Gal(b1-4)GlcNAc(b1-3)GalNAc
How it was run: as §1

[29] = biological target: Neu5Ac(a2-3)[Neu5Ac(a2-6)]GalNAc
How it was run: as §1

[30] = biological target: Neu5Ac(a2-6)Gal
How it was run: as §1

[31] = biological target: Neu5Ac(a2-6)Gal(b1-3)GlcNAc(b1-3)[Gal(b1-4)GlcNAc(b1-6)]Gal(b1-4)Glc
How it was run: as §1

[32] = biological target: Neu5Ac(a2-6)Gal(b1-4)Glc
How it was run: as §1

[33] = biological target: Neu5Ac(a2-6)Gal(b1-4)GlcNAc
How it was run: as §1

[34] = biological target: Neu5Ac(a2-6)Gal(b1-4)GlcNAc(b1-2)Man(a1-3)Man(b1-4)GlcNAc(b1-4)GlcNAc
How it was run: as §1

[35] = biological target: Neu5Ac(a2-6)Gal(b1-4)GlcNAc(b1-2)Man(a1-3)[Gal(b1-4)GlcNAc(b1-2)Man(a1-6)]Man(b1-4)GlcNAc(b1-4)GlcNAc
How it was run: as §1

[36] = biological target: Neu5Ac(a2-6)Gal(b1-4)GlcNAc(b1-2)Man(a1-3)[GlcNAc(b1-2)Man(a1-6)]Man(b1-4)GlcNAc(b1-4)GlcNAc
How it was run: as §1

[37] = biological target: Neu5Ac(a2-6)Gal(b1-4)GlcNAc(b1-2)Man(a1-3)[GlcNAc(b1-2)Man(b1-4)GlcNAc(b1-2)Man(a1-6)]Man(b1-4)GlcNAc(b1-4)GlcNAc
How it was run: as §1

[38] = biological target: Neu5Ac(a2-6)Gal(b1-4)GlcNAc(b1-2)Man(a1-3)[Man(a1-6)]Man(b1-4)GlcNAc(b1-4)GlcNAc
How it was run: as §1

B1: FedF (Escherichia coli), Q47212 (protein)
chain: MRLKYILIIPLLLISLSVFASTLQVDKSVSYDWINSSASSAQVTGTLLGTGKTNTTQMPALYTWQHQIYNVNFIPSSSGTLTCQAGTILVWKNGRETQYALECRVSIHHSSGSINESQWGQQSQVGFGTACGNKKCRFTGFEISLRIPPNAQTYPLSSGDLKGSFSLTNKEVNWSASIYVPAIAKSYRLDTSITLPDTVNLKQNQATPVYYTFSAPSVSNTITGIPNQNDMPSSNVKLTIGPIQSKTTALYVQPDATGSWYDLSKSITMTVVKSSMLNFKGINAKPGNVTLSVPIVFEIQ
glycan array binding signal (z-score) [1]: -0.222
glycan array binding signal (z-score) [2]: -0.127
glycan array binding signal (z-score) [3]: -0.047
glycan array binding signal (z-score) [4]: 0.254
glycan array binding signal (z-score) [5]: -0.172
glycan array binding signal (z-score) [6]: -0.076
glycan array binding signal (z-score) [7]: -0.179
glycan array binding signal (z-score) [8]: -0.258
glycan array binding signal (z-score) [9]: -0.027
glycan array binding signal (z-score) [10]: -0.292
glycan array binding signal (z-score) [11]: -0.048
glycan array binding signal (z-score) [12]: 0.025
glycan array binding signal (z-score) [13]: -0.185
glycan array binding signal (z-score) [14]: 0.209
glycan array binding signal (z-score) [15]: -0.164
glycan array binding signal (z-score) [16]: -0.471
glycan array binding signal (z-score) [17]: -0.016
glycan array binding signal (z-score) [18]: -0.158
glycan array binding signal (z-score) [19]: -0.084
glycan array binding signal (z-score) [20]: 0.222
glycan array binding signal (z-score) [21]: 0.245
glycan array binding signal (z-score) [22]: 0.108
glycan array binding signal (z-score) [23]: -0.122
glycan array binding signal (z-score) [24]: -0.336
glycan array binding signal (z-score) [25]: -0.221
glycan array binding signal (z-score) [26]: -0.336
glycan array binding signal (z-score) [27]: -0.135
glycan array binding signal (z-score) [28]: 0.24
glycan array binding signal (z-score) [29]: -0.139
glycan array binding signal (z-score) [30]: 0.086
glycan array binding signal (z-score) [31]: -0.171
glycan array binding signal (z-score) [32]: -0.197
glycan array binding signal (z-score) [33]: -0.257
glycan array binding signal (z-score) [34]: -0.086
glycan array binding signal (z-score) [35]: -0.172
glycan array binding signal (z-score) [36]: -0.171
glycan array binding signal (z-score) [37]: 0.022
glycan array binding signal (z-score) [38]: -0.11
